Assay results taken from patent publication US10376524B2, “Use of GABAA receptor antagonists for the treatment of excessive sleepiness and disorders associated with excessive sleepiness” (EMORY UNIVERSITY, priority 2008, dated 2019).

Columns and labels:
[1] = tested on: Patient AS99 (idiopathic hypersomnia); experiment: Beck Depression Inventory, patient AS99 on sublingual flumazenil; details: pre-treatment 7
[2] = tested on: Patient AS99 (idiopathic hypersomnia); experiment: Epworth Sleepiness Scale, patient AS99 on sublingual flumazenil; details: pre-treatment 18
[3] = tested on: Patient AS99 (idiopathic hypersomnia); experiment: Functional Outcomes of Sleep, patient AS99 on sublingual flumazenil; details: for Functional Outcomes of Sleep: Activity: pre-treatment 3.6; for Functional Outcomes of Sleep: General Productivity: pre-treatment 6; for Functional Outcomes of Sleep: Total Mean: pre-treatment 7.4; for Functional Outcomes of Sleep: Vigilance: pre-treatment 8; for Functional Outcomes of Sleep: Social Activity: pre-treatment 12; for Functional Outcomes of Sleep: Total: pre-treatment 29.5
[4] = tested on: Patient AS99 (idiopathic hypersomnia); experiment: Rest-activity cycle (actigraphy) of patient AS99; format: in vivo, human; details: chronic sublingual administration, FIGS. 18a, 18b
[5] = tested on: Patient AS99 (idiopathic hypersomnia); experiment: Clinical course of patient AS99
[6] = tested on: Patient AS99 (idiopathic hypersomnia); experiment: SF-36 Health Survey, patient AS99 on sublingual flumazenil; details: for SF-36 Health Survey: Physical: pre-treatment 39.5; for SF-36 Health Survey: Mental: pre-treatment 49.7
GABAA receptors = GABAA receptors (Homo sapiens, UniProt P14867+P18507+P47870); experiment: Activity of adenosine in artificial CSF at GABAA receptors; format: cell-based; details: 1 mM, 100 μM and 10 μM adenosine in artificial CSF

CCOC(=O)c1ncn2c1CN(C)C(=O)c1cc(F)ccc1-2 [flumazenil]
Beck Depression Inventory ([1]; 1 month post): 2
Beck Depression Inventory ([1]; 2 months post): 2
Epworth Sleepiness Scale ([2]; 1 month post): 3
Epworth Sleepiness Scale ([2]; 2 months post): 3
Functional Outcomes of Sleep: Activity ([3]; 1 month post): 19.6
Functional Outcomes of Sleep: General Productivity ([3]; 1 month post): 23
Functional Outcomes of Sleep: Total Mean ([3]; 1 month post): 22.1
Functional Outcomes of Sleep: Vigilance ([3]; 1 month post): 22
Functional Outcomes of Sleep: Social Activity ([3]; 1 month post): 24
Functional Outcomes of Sleep: Total ([3]; 1 month post): 88.6
Functional Outcomes of Sleep: Activity ([3]; 2 months post): 21.3
Functional Outcomes of Sleep: General Productivity ([3]; 2 months post): 24
Functional Outcomes of Sleep: Total Mean ([3]; 2 months post): 23.3
Functional Outcomes of Sleep: Vigilance ([3]; 2 months post): 24
Functional Outcomes of Sleep: Social Activity ([3]; 2 months post): 24
Functional Outcomes of Sleep: Total ([3]; 2 months post): 93.3
rest-activity cycles [4]: improved
outcome of continued use ([5]; patient AS99, sublingual flumazenil for 9 months): positive results
sleep, mood, sleepiness, and quality of life ([5]; patient AS99, sublingual flumazenil, sustainable): improved dramatically
SF-36 Health Survey: Physical ([6]; 1 month post): 54.4
SF-36 Health Survey: Mental ([6]; 1 month post): 64.0
SF-36 Health Survey: Physical ([6]; 2 months post): 66.2
SF-36 Health Survey: Mental ([6]; 2 months post): 56.2

CC[C@H]1OC(=O)[C@H](C)[C@@H](O[C@H]2C[C@@](C)(OC)[C@@H](O)[C@H](C)O2)[C@H](C)[C@@H](O[C@@H]2O[C@H](C)C[C@H](N(C)C)[C@H]2O)[C@](C)(OC)C[C@@H](C)C(=O)[C@H](C)[C@@H](O)[C@]1(C)O [clarithromycin]
insomnia, reversed promptly upon discontinuation ([5]; patient AS99 on sublingual flumazenil, when prescribed clarithromycin): 4 nights

Nc1ncnc2c1ncn2[C@@H]1O[C@H](CO)[C@@H](O)[C@H]1O [adenosine]
activity at GABAA receptors (GABAA receptors): no activity

NC(=O)C[S+]([O-])C(c1ccccc1)c1ccccc1 (centres unmarked) [modafinil]
hypersomnia under treatment ([5]; patient AS99, maximum doses of dextroamphetamine (60 mg) in combination with modafinil (800 mg)): hypersomnia persisted
